Patent US11207320B2, “Compositions and methods for cancer expressing PDE3A or SLFN12” (The Broad Institute, Inc., priority 2015, dated 2021)
The source gives many values for each of these; only a part stands here.

System: 766 cancer cell lines
Experiment: Large-scale cell-line viability measurements (766 cancer cell lines, 72 h, AUC)
Assay type: cell-based, human
Procedure: Cell lines were treated for 72 hours with concentrations ranging from 66.4 μM-2 nM in 2-fold step dilutions.
To characterize cellular sensitivity to DNMDP further, 766 genomically characterized cancer cell lines were screened for DMNDP sensitivity at concentrations ranging from 66.4 μM to 2 nM in 2-fold dilution steps for 72 hours. From these cell lines, 22 cell lines were categorized as sensitive with a robust Z-score lower than −4, which represented multiple lineages including multiple melanoma cell lines, amongst others (Table 1).
The sensitivity of […] cancer cell lines (CCLs) was measured drawn from 23 different lineages to DNMDP. Each cell line was plated in its preferred media in white opaque 1536-plates at a density of 500 cells/well. After incubating overnight, DNMDP was added by acoustic transfer at 16 concentrations ranging from 66.4 μM-2 nM in 2-fold steps in duplicate (Labcyte Echo 555, Labcyte Inc., Sunnyvale, Calif.). After 72 hours treatment, cellular ATP levels were measured as a surrogate for viability (CELLTITERGLO®, Promega Corporation, Madison, Wis.) according to manufacturer's protocols using a ViewLux Microplate Imager (PerkinElmer, Waltham, Mass.) and normalized to background (media-only) and vehicle (DMSO)-treated control wells.
Concentration response curves were fit using nonlinear fits to 2- or 3-parameter sigmoid functions through all 16 concentrations with the low-concentration asymptote set to the DMSO-normalized value, and an optimal 8-point dose curve spanning the range of compound-sensitivity was identified. The area under the 8-point dose curve (AUC) was computed by numeric integration as a metric for sensitivity for further analysis. Similar sensitivity measurements have been obtained for a collection of 480 other compounds, enabling analyses that identify cell lines responding uniquely to DNMDP (see Broad Institute Cancer Therapeutics Response Portal, a dataset to identify comprehensively relationships between genetic and lineage features of human cancer cell lines and small-molecule sensitivities for complete list of compounds).

[1] = cell line CAMA1, BREAST, 72 hours
[2] = cell line CAPAN2, PANCREAS, 72 hours
[3] = cell line CCFSTTG1 (CENTRAL NERVOUS SYSTEM)
[4] = cell line CHP126 (AUTONOMIC GANGLIA)
[5] = cell line CL11 (LARGE INTESTINE)
[6] = cell line CMK (HAEMATOPOIETIC AND LYMPHOID TISSUE)
[7] = cell line COLO201 (LARGE INTESTINE)
[8] = cell line COLO205 (LARGE INTESTINE)
[9] = cell line COLO680N (OESOPHAGUS)
[10] = cell line COLO684 (ENDOMETRIUM)
[11] = cell line CORL95, LUNG, 72 hours
[12] = cell line D283MED (CENTRAL NERVOUS SYSTEM)
[13] = cell line DAOY (CENTRAL NERVOUS SYSTEM)
[14] = cell line DEL (HAEMATOPOIETIC AND LYMPHOID TISSUE)
[15] = cell line DETROIT562 (UPPER AERODIGESTIVE TRACT)
[16] = cell line DLD1 (LARGE INTESTINE)
[17] = cell line DMS79, LUNG, 72 hours
[18] = cell line ECC10, STOMACH, 72 hours
[19] = cell line EFE184, ENDOMETRIUM, 72 hours
[20] = cell line EM2, HAEMATOPOIETIC AND LYMPHOID TISSUE, 72 hours
[21] = cell line FADU (UPPER AERODIGESTIVE TRACT)
[22] = cell line FUOV1, OVARY, 72 hours
[23] = cell line GA10 (HAEMATOPOIETIC AND LYMPHOID TISSUE)
[24] = cell line GAMG (CENTRAL NERVOUS SYSTEM)
[25] = cell line GI1 (CENTRAL NERVOUS SYSTEM)
[26] = cell line HCC1438, LUNG, 72 hours
[27] = cell line HCC1588, LUNG, 72 hours
[28] = cell line HCC1833, LUNG, 72 hours
[29] = cell line HCC2218, BREAST, 72 hours
[30] = cell line HCC2935, LUNG, 72 hours
[31] = cell line HCT116 (LARGE INTESTINE)
[32] = cell line HDLM2 (HAEMATOPOIETIC AND LYMPHOID TISSUE)
[33] = cell line HDMYZ (HAEMATOPOIETIC AND LYMPHOID TISSUE)
[34] = cell line HDQP1, BREAST, 72 hours
[35] = cell line HEC265, ENDOMETRIUM, 72 hours
[36] = cell line HEP3B217, LIVER, 72 hours

## CCN(CC)c1ccc(C2=NNC(=O)CC2C)cc1[N+](=O)[O-] (centres unmarked) [DNMDP, 6-(4-(diethylamino)-3-nitrophenyl)-5-methyl-4,5-dihydropyridazin-3(2H)-one]
Cell line CALU1, LUNG, 72 hours
  Robust Z-score: 1.243
Cell line CALU3 (LUNG)
  DNMDP AUC: 6.7536
  Robust Z-score: 0.1249
Cell line CALU6 (LUNG)
  DNMDP AUC: 6.5932
  Robust Z-score: −0.04351
[1]
  DNMDP AUC: 7.2254
  Robust Z-score: 0.6201
Cell line CAPAN1 (PANCREAS)
  DNMDP AUC: 6.786
  Robust Z-score: 0.1589
[2]
  DNMDP AUC: 7.6273
  Robust Z-score: 1.042
[3]
  DNMDP AUC: 7.0119
  Robust Z-score: 0.396
Cell line CFPAC1 (PANCREAS)
  DNMDP AUC: 6.8671
  Robust Z-score: 0.244
[4]
  DNMDP AUC: 6.7459
  Robust Z-score: 0.1168
[5]
  DNMDP AUC: 6.711
  Robust Z-score: 0.08014
[6]
  DNMDP AUC: 6.7483
  Robust Z-score: 0.1193
[7]
  DNMDP AUC: 6.752
  Robust Z-score: 0.1232
[8]
  DNMDP AUC: 6.7052
  Robust Z-score: 0.07405
[9]
  DNMDP AUC: 6.8864
  Robust Z-score: 0.2642
[10]
  DNMDP AUC: 6.993
  Robust Z-score: 0.3761
Cell line COLO783 (SKIN)
  DNMDP AUC: 6.778
  Robust Z-score: 0.1505
Cell line COLO792 (SKIN)
  DNMDP AUC: 6.7997
  Robust Z-score: 0.1732
Cell line CORL88 (LUNG)
  DNMDP AUC: 6.7915
  Robust Z-score: 0.1646
[11]
  DNMDP AUC: 8.5762
  Robust Z-score: 2.038
[12]
  DNMDP AUC: 6.857
  Robust Z-score: 0.2334
Cell line DANG (PANCREAS)
  DNMDP AUC: 6.8825
  Robust Z-score: 0.2602
[13]
  DNMDP AUC: 6.6343
  Robust Z-score: −0.0003674
[14]
  DNMDP AUC: 6.7494
  Robust Z-score: 0.1204
[15]
  DNMDP AUC: 6.7465
  Robust Z-score: 0.1174
[16]
  DNMDP AUC: 6.6751
  Robust Z-score: 0.04246
[17]
  DNMDP AUC: 7.1572
  Robust Z-score: 0.5485
Cell line DMS114 (LUNG)
  DNMDP AUC: 6.6335
  Robust Z-score: −0.001207
Cell line DMS273 (LUNG)
  DNMDP AUC: 7.0958
  Robust Z-score: 0.484
Cell line DMS454 (LUNG)
  DNMDP AUC: 7.019
  Robust Z-score: 0.4034
Cell line DU4475 (BREAST)
  DNMDP AUC: 6.742
  Robust Z-score: 0.1127
Cell line EBC1 (LUNG)
  DNMDP AUC: 6.5617
  Robust Z-score: −0.07657
[18]
  DNMDP AUC: 7.3182
  Robust Z-score: 0.7175
Cell line ECC12 (STOMACH)
  DNMDP AUC: 6.6785
  Robust Z-score: 0.04603
[19]
  DNMDP AUC: 7.1614
  Robust Z-score: 0.5529
Cell line EFO21 (OVARY)
  DNMDP AUC: 6.633
  Robust Z-score: −0.001732
Cell line EFO27 (OVARY)
  DNMDP AUC: 6.832
  Robust Z-score: 0.2071
[20]
  DNMDP AUC: 7.5755
  Robust Z-score: 0.9876
Cell line EN (ENDOMETRIUM)
  DNMDP AUC: 6.9773
  Robust Z-score: 0.3597
Cell line ES2 (OVARY)
  DNMDP AUC: 6.7183
  Robust Z-score: 0.0878
Cell line ESS1 (ENDOMETRIUM)
  DNMDP AUC: 6.7626
  Robust Z-score: 0.1343
[21]
  DNMDP AUC: 6.7809
  Robust Z-score: 0.1535
Cell line FTC133 (THYROID)
  DNMDP AUC: 6.8949
  Robust Z-score: 0.2732
[22]
  DNMDP AUC: 7.6122
  Robust Z-score: 1.026
Cell line G361 (SKIN)
  DNMDP AUC: 6.6284
  Robust Z-score: −0.00656
[23]
  DNMDP AUC: 6.59
  Robust Z-score: −0.04687
[24]
  DNMDP AUC: 6.8471
  Robust Z-score: 0.223
Cell line GCT (SOFT TISSUE)
  DNMDP AUC: 7.0174
  Robust Z-score: 0.4018
[25]
  DNMDP AUC: 6.9897
  Robust Z-score: 0.3727
Cell line GSS (STOMACH)
  DNMDP AUC: 6.794
  Robust Z-score: 0.1673
Cell line HARA (LUNG)
  DNMDP AUC: 6.7238
  Robust Z-score: 0.09358
Cell line HCC78 (LUNG)
  DNMDP AUC: 6.7625
  Robust Z-score: 0.1342
Cell line HCC95 (LUNG)
  DNMDP AUC: 6.7794
  Robust Z-score: 0.1519
Cell line HCC202 (BREAST)
  DNMDP AUC: 6.5484
  Robust Z-score: −0.09053
Cell line HCC366 (LUNG)
  DNMDP AUC: 6.9295
  Robust Z-score: 0.3095
Cell line HCC827 (LUNG)
  DNMDP AUC: 6.7384
  Robust Z-score: 0.1089
Cell line HCC1171 (LUNG)
  DNMDP AUC: 6.7838
  Robust Z-score: 0.1566
Cell line HCC1195 (LUNG)
  DNMDP AUC: 6.941
  Robust Z-score: 0.3216
[26]
  DNMDP AUC: 7.7264
  Robust Z-score: 1.146
Cell line HCC1569 (BREAST)
  DNMDP AUC: 6.6976
  Robust Z-score: 0.06608
[27]
  DNMDP AUC: 7.1149
  Robust Z-score: 0.5041
Cell line HCC1806 (BREAST)
  DNMDP AUC: 6.8314
  Robust Z-score: 0.2065
[28]
  DNMDP AUC: 7.2887
  Robust Z-score: 0.6865
Cell line HCC1937 (BREAST)
  DNMDP AUC: 6.5773
  Robust Z-score: −0.0602
Cell line HCC1954 (BREAST)
  DNMDP AUC: 6.9728
  Robust Z-score: 0.3549
Cell line HCC2108 (LUNG)
  DNMDP AUC: 6.9789
  Robust Z-score: 0.3613
[29]
  DNMDP AUC: 7.1208
  Robust Z-score: 0.5103
Cell line HCC2279 (LUNG)
  DNMDP AUC: 7.0072
  Robust Z-score: 0.391
[30]
  DNMDP AUC: 7.5084
  Robust Z-score: 0.9171
[31]
  DNMDP AUC: 6.632
  Robust Z-score: −0.002782
[32]
  DNMDP AUC: 6.7172
  Robust Z-score: 0.08665
[33]
  DNMDP AUC: 6.5974
  Robust Z-score: −0.0391
[34]
  DNMDP AUC: 7.2935
  Robust Z-score: 0.6916
Cell line HEC1A (ENDOMETRIUM)
  DNMDP AUC: 7.0465
  Robust Z-score: 0.4323
Cell line HEC1B (ENDOMETRIUM)
  DNMDP AUC: 6.9583
  Robust Z-score: 0.3397
Cell line HEC6 (ENDOMETRIUM)
  DNMDP AUC: 6.6667
  Robust Z-score: 0.03364
Cell line HEC50B (ENDOMETRIUM)
  DNMDP AUC: 6.9622
  Robust Z-score: 0.3438
Cell line HEC59 (ENDOMETRIUM)
  DNMDP AUC: 6.7321
  Robust Z-score: 0.1023
Cell line HEC108 (ENDOMETRIUM)
  DNMDP AUC: 7.0804
  Robust Z-score: 0.4679
Cell line HEC151 (ENDOMETRIUM)
  DNMDP AUC: 6.9099
  Robust Z-score: 0.2889
Cell line HEC251 (ENDOMETRIUM)
  DNMDP AUC: 6.7301
  Robust Z-score: 0.1002
[35]
  DNMDP AUC: 7.2509
  Robust Z-score: 0.6468
[36]
  DNMDP AUC: 7.4062
  Robust Z-score: 0.8099
Cell line HEPG2 (LIVER)
  DNMDP AUC: 6.8274
  Robust Z-score: 0.2023
Cell line HEYA8 (OVARY)
  DNMDP AUC: 6.7972
  Robust Z-score: 0.1706
